# Results: the supplement of paper PMC8728848
# This is one part of the list.
# How the values were obtained:
# Test in all cases: glycan array binding signal (z-score within array); higher = stronger binding
# Details in all cases: glycan notation: IUPAC condensed, linker removed
# [1] = target: Gal(b1-4)GlcNAc(b1-3)Gal(b1-4)Glc
# Outline: (§1)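 The binding signal is a Z-score computed within each array. Data were drawn from 3228 arrays in the Consortium for Functional Glycomics database, restricted to those with a known protein sequence. Scores were averaged over arrays of the same protein sequence at different concentrations or buffers, and over linkers, and negative values can be taken as non-binding.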
# [2] = target: Gal(b1-4)GlcNAc(b1-3)Gal(b1-4)GlcNAc
# Outline: as §1
# [3] = target: Gal(b1-4)GlcNAc(b1-3)Gal(b1-4)GlcNAc(b1-3)Gal(b1-4)GlcNAc
# Outline: as §1
# [4] = target: Gal(b1-4)GlcNAc(b1-3)Gal(b1-4)[Fuc(a1-3)]GlcNAc(b1-3)Gal(b1-4)[Fuc(a1-3)]GlcNAc
# Outline: as §1
# [5] = target: Gal(b1-4)GlcNAc(b1-3)GalNAc
# Outline: as §1
# [6] = target: Gal(b1-4)GlcNAc(b1-3)[Gal(b1-4)GlcNAc(b1-6)]GalNAc
# Outline: as §1
# [7] = target: Gal(b1-4)GlcNAc(b1-6)Gal(b1-4)GlcNAc(b1-6)GalNAc
# Outline: as §1
# [8] = target: Gal(b1-4)GlcNAc(b1-6)GalNAc
# Outline: as §1
# [9] = target: Gal(b1-4)GlcNAc(b1-6)[Gal(b1-3)]GalNAc
# Outline: as §1
# Gal3S(b1-3)GalNAc = target: Gal3S(b1-3)GalNAc
# Outline: as §1
# Gal3S(b1-3)GlcNAc = target: Gal3S(b1-3)GlcNAc
# Outline: as §1
# [10] = target: Gal3S(b1-3)[Fuc(a1-4)]GlcNAc
# Outline: as §1
# Gal3S(b1-4)Glc = target: Gal3S(b1-4)Glc
# Outline: as §1
# Gal3S(b1-4)Glc6S = target: Gal3S(b1-4)Glc6S
# Outline: as §1
# Gal3S(b1-4)GlcNAc = target: Gal3S(b1-4)GlcNAc
# Outline: as §1
# Gal3S(b1-4)GlcNAc6S = target: Gal3S(b1-4)GlcNAc6S
# Outline: as §1
# Gal3S6S(b1-4)GlcNAc = target: Gal3S6S(b1-4)GlcNAc
# Outline: as §1
# Gal3S6S(b1-4)GlcNAc6S = target: Gal3S6S(b1-4)GlcNAc6S
# Outline: as §1
# Gal4S(b1-4)GlcNAc = target: Gal4S(b1-4)GlcNAc
# Outline: as §1
# Gal4S6S(b1-4)GlcNAc = target: Gal4S6S(b1-4)GlcNAc
# Outline: as §1
# Gal6S(b1-4)Glc = target: Gal6S(b1-4)Glc
# Outline: as §1
# Gal6S(b1-4)Glc6S = target: Gal6S(b1-4)Glc6S
# Outline: as §1
# Gal6S(b1-4)GlcNAc = target: Gal6S(b1-4)GlcNAc
# Outline: as §1
# GalNAc(a1-3)Gal = target: GalNAc(a1-3)Gal
# Outline: as §1
# GalNAc(a1-3)GalNAc = target: GalNAc(a1-3)GalNAc
# Outline: as §1
# [11] = target: GalNAc(b1-3)Gal(a1-4)Gal(b1-4)GlcNAc
# Outline: as §1
# GalNAc(b1-3)GalNAc = target: GalNAc(b1-3)GalNAc
# Outline: as §1
# GalNAc(b1-4)GlcNAc = target: GalNAc(b1-4)GlcNAc
# Outline: as §1
# Glc(a1-4)Glc = target: Glc(a1-4)Glc
# Outline: as §1
# Glc(a1-6)Glc(a1-6)Glc = target: Glc(a1-6)Glc(a1-6)Glc
# Outline: as §1
# Glc(b1-4)Glc = target: Glc(b1-4)Glc
# Outline: as §1
# Glc(b1-6)Glc = target: Glc(b1-6)Glc
# Outline: as §1
# GlcA(b1-3)Gal = target: GlcA(b1-3)Gal
# Outline: as §1
# GlcA(b1-6)Gal = target: GlcA(b1-6)Gal
# Outline: as §1
# [12] = target: GlcNAc(a1-3)Gal(b1-4)GlcNAc
# Outline: as §1
# [13] = target: GlcNAc(a1-6)Gal(b1-4)GlcNAc
# Outline: as §1
# [14] = target: GlcNAc(b1-2)Gal(b1-3)GalNAc
# Outline: as §1
# [15] = target: GlcNAc(b1-2)Man(a1-3)[GlcNAc(b1-2)Man(a1-6)]Man(b1-4)GlcNAc(b1-4)GlcNAc
# Outline: as §1
# GlcNAc(b1-3)Gal = target: GlcNAc(b1-3)Gal
# Outline: as §1
# [16] = target: GlcNAc(b1-3)Gal(b1-3)GalNAc
# Outline: as §1
# GlcNAc(b1-3)Gal(b1-4)Glc = target: GlcNAc(b1-3)Gal(b1-4)Glc
# Outline: as §1
binder,measurement,setting,value
"DCIR (Homo sapiens), Q9UMR7 (protein) MTSEITYAEVRFKNEFKSSGINTASSAASKERTAPHKSNTGFPKLLCASLLIFFLLLAISFFIAFVIFFQKYSQLLEKKTTKELVHTTLECVKKNMPVEETAWSCCPKNWKSFSSNCYFISTESASWQDSEKDCARMEAHLLVINTQEEQDFIFQNLQEESAYFVGLSDPEGQRHWQWVDQTPYNESSTFWHPREPSDPNERCVVLNFRKSPKRWGWNDVNCLGPQRSVCEMMKIHL",glycan array binding signal (z-score),[1],-0.114
same,glycan array binding signal (z-score),[2],0.02
same,glycan array binding signal (z-score),[3],-0.49
same,glycan array binding signal (z-score),[4],-0.369
same,glycan array binding signal (z-score),[5],0.096
same,glycan array binding signal (z-score),[6],-0.4
same,glycan array binding signal (z-score),[7],0.07
same,glycan array binding signal (z-score),[8],-0.428
same,glycan array binding signal (z-score),[9],-0.161
same,glycan array binding signal (z-score),Gal3S(b1-3)GalNAc,-0.205
same,glycan array binding signal (z-score),Gal3S(b1-3)GlcNAc,0.291
same,glycan array binding signal (z-score),[10],0.626
same,glycan array binding signal (z-score),Gal3S(b1-4)Glc,-0.426
same,glycan array binding signal (z-score),Gal3S(b1-4)Glc6S,3.94
same,glycan array binding signal (z-score),Gal3S(b1-4)GlcNAc,0.121
same,glycan array binding signal (z-score),Gal3S(b1-4)GlcNAc6S,5.68
same,glycan array binding signal (z-score),Gal3S6S(b1-4)GlcNAc,2.62
same,glycan array binding signal (z-score),Gal3S6S(b1-4)GlcNAc6S,7.43
same,glycan array binding signal (z-score),Gal4S(b1-4)GlcNAc,-0.384
same,glycan array binding signal (z-score),Gal4S6S(b1-4)GlcNAc,1.45
same,glycan array binding signal (z-score),Gal6S(b1-4)Glc,0.036
same,glycan array binding signal (z-score),Gal6S(b1-4)Glc6S,4.52
same,glycan array binding signal (z-score),Gal6S(b1-4)GlcNAc,-0.322
same,glycan array binding signal (z-score),GalNAc(a1-3)Gal,-0.365
same,glycan array binding signal (z-score),GalNAc(a1-3)GalNAc,-0.368
same,glycan array binding signal (z-score),[11],-0.239
same,glycan array binding signal (z-score),GalNAc(b1-3)GalNAc,0.178
same,glycan array binding signal (z-score),GalNAc(b1-4)GlcNAc,-0.144
same,glycan array binding signal (z-score),Glc(a1-4)Glc,-0.309
same,glycan array binding signal (z-score),Glc(a1-6)Glc(a1-6)Glc,0.048
same,glycan array binding signal (z-score),Glc(b1-4)Glc,-0.1
same,glycan array binding signal (z-score),Glc(b1-6)Glc,-0.359
same,glycan array binding signal (z-score),GlcA(b1-3)Gal,-0.076
same,glycan array binding signal (z-score),GlcA(b1-6)Gal,-0.391
same,glycan array binding signal (z-score),[12],-0.522
same,glycan array binding signal (z-score),[13],-0.208
same,glycan array binding signal (z-score),[14],-0.358
same,glycan array binding signal (z-score),[15],-0.344
same,glycan array binding signal (z-score),GlcNAc(b1-3)Gal,-0.245
same,glycan array binding signal (z-score),[16],-0.423
same,glycan array binding signal (z-score),GlcNAc(b1-3)Gal(b1-4)Glc,-0.005
